In a collection of fitness landscapes (doi:10.1016/j.celrep.2020.107928):
Over roughly 81,000 sequences, “one-hybrid fitness for binding NBS DNA” has its median near -0.1; the highest 2% begin near 0.36. This is one part of the list.

B1: Caulobacter ParB omega fusion; a variant is named by its letters at X, in order, B8GW30 (parent)
chain: MESVVVGEPGMSEGRRGLGRGLSALLGEVDAAPAQAPGEQLGGSREAPIEILQRNPDQPRRTFREEDLEDLSNSIREKGVLQPILVRPSPDTAGEYQIVAGERAWRAAQRAGLKTVPIMVRELDDLAVLEIGIIENVQRADLNVLEEALSYKVLMEKFERTQENIAQTIGKSXSHVANXMRLLXLPDEVQSYLVSGELTAXHARAIAAAADPVALAKQIIEGGLSVRETEALARKAPNLSAGKSKGGRPPRVKDTDTQALESDLSSVLGLDVSIDHRGSTGTLTITYATLEQLDDLCNRLTRGI

Variants of: B1
Assay: one-hybrid fitness for binding NBS DNA (the Noc-binding site; scaled: cognate 1, non-cognate 0); higher = stronger binding
Conditions: with NBS DNA site
Outline: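 The reporter was HIS3, with the binding site 19 bp from the promoter, in E. coli USO used for bacterial one-hybrid selection of Caulobacter ParB libraries with four specificity codons randomised. Growth was on M9 lacking histidine, with 0.1 mM IPTG and 5 mM 3-AT, for 48 hours at 37°C. Illumina sequencing covered plasmids before and after selection; three replicate libraries were pooled and variants with under 10 reads dropped. A fitness score is the log change in variant-to-wild-type read ratio, rescaled to the cognate and non-cognate references.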

one-hybrid fitness for binding NBS DNA, 0.436:
QQSS

one-hybrid fitness for binding NBS DNA, 0.248:
RFSR

one-hybrid fitness for binding NBS DNA, 0.317:
RRLY

one-hybrid fitness for binding NBS DNA, 0.304:
QLKC

one-hybrid fitness for binding NBS DNA, ≤ 0.2:
AIYG
KMKY
KLQC
WSKS
PAVC
TTQP
PRPC
KSDI
HVAS
RRPE
GLWG
RTGY
NMIR
VDQG
KSYG
TCEN
YFPT
QLPH
CSGS
RRVD
QEHS
QHFM
SVDT
IGSS
PATF
QNLT
SILS
RMSW
GRWV
IPLW
RHTG
YFHR
GISK
RSDD
FANN
FAKW
QMEH
HNYC
HVFG
PISQ
REHL
PVIR
YNGT
RWYA
AYFT
AARK
LNIS
QNYW
NMKF
EPFS
GRTN
DQSC
LTSI
NAQA
IFAG
HSGF
PQKF
HKTV
LSTV
EHNT
EIKS
TGLI
GRRA
LTFG
GANS
NKPG
FLVR
YVWR
HLQG
TMRL
YETI
MHPM
DCDR
MEWS
VHKK
TFSM
PGRE
FRPG
GFHS
PHHN
FRGT
MSAG
VTFA
SVGG
WLHR
CVFI
GMFS
EWTA
NRLG
AGGT
HMEG
PYFR
PTHY
IGQS
RWET
QGVC
CCEL
REDF
IRVI
KPDF
TEVR
THGD
HQRP
WRRG
GQLL
ENCS
HWMR
NGVM
WLQC
ITIN
RVHM
ARSQ
LGDT
SERV
TNRY
AECV
RNLQ
SWEP
PGKP
LADG
DTRL
GGPI
VRSA
PGPC
ASAA
SPCP
TMVP
FNAY
PTGH
VLTS
ANPV
IRWR
GIQS
YLDS
GFQQ
LKRN
KVSM
HWVK
SRWP
EWTF
VCPT
QFIF
ADRY
RQRK
KNWL
PEIG
RHMC
MTDL
CWVS
YEAW
ECGL
MPEC
DPRW
TRCA
SAPP
EGKS
GPTL
DAKC
HYPS
SSPL
SFHK
TIVC
HIMS
MPTP
EWVS
EAAY
SNKH
WSGR
FEYC
YPSL
CLSI
MYMC
DWCS
EYNR
GMQS
AMAV
NQAD
HQPL
CSAS
DFKD
SRAT
THCT
PLVM
SHTM
NDKA
YKQM
LEKY
KYLF
REDA
VVIR
NKAN
WDSL
DGIV
QWMC
LRRH
GPYL
TRPV
WNNS
LRED
IKIT
PLCN
VGPG
VQQR
LGQG
GRCA
DFLG
WDDG
DITV
ASVE
TGLV
RTAV
HCKF
KCIC
MTLD
YPII
ALAD
CGDR
FPKC
MIGS
TKKS
PACC
HRMY
LCAD
NFQS
ERTY
SKLI
SQYC
MKLE
CHEA
LCPQ
FRTV
CVCC
AILR
GVRG
HTQR
YKTQ
YEAM
PELA
LLCY
QIDN
DCRV
TKEL
AHIG
NNPS
PMKG
HDLQ
ALNC
INAR
YPTV
PEKG
RVSL
AQSY
PQPN
PNVR
EFLS
KCEV
FSMT
SSSY
MSIC
KQHW
EGVS
SNLN
VMGW
RPMF
IFLH
STGN
CCSV
KKAS
CAHI
FQHR
SWML
GSIK
AQVL
EWMG
CLKR
KTGF
LNSS
LNGF
QKPD
GKKG
PFRE
LSNF
PSYP
PDNK
PCTD
IFNV
THFN
SYEK
GDRN
YAER

one-hybrid fitness for binding NBS DNA, 0.568:
QMTR

one-hybrid fitness for binding NBS DNA, 0.343:
RRNG

one-hybrid fitness for binding NBS DNA, 0.342:
QATS

one-hybrid fitness for binding NBS DNA, 0.437:
QIGR

one-hybrid fitness for binding NBS DNA, 0.539:
KRMT

one-hybrid fitness for binding NBS DNA, 0.647:
RRKM

one-hybrid fitness for binding NBS DNA, 0.347:
QQAA

one-hybrid fitness for binding NBS DNA, 0.272:
KKSR

one-hybrid fitness for binding NBS DNA, 0.28:
FCKT

one-hybrid fitness for binding NBS DNA, 0.227:
QRDC

one-hybrid fitness for binding NBS DNA, 0.25:
QVSS

one-hybrid fitness for binding NBS DNA, 0.273:
ICKR
